Measurements taken from PubChem BioAssay (NCATS).
Inconclusive results, whose numbers are uncertain, are shown with a selection of clear calls. For part of these data: Where the call is inconclusive, the potency comes from a doubtful curve fit. Active and inactive are the calls of the source. Unless noted, the call rests on the fitted dose curve; in most records, active means well fitted curve in the direction sought with a large enough effect; inconclusive means small, poorly fitted or top-dose-only effect, or another doubt; inactive means no such curve, though single readings can be large; an effect the other way counts as inactive or inconclusive.

What was measured:
[1] = qHTS Assay for Identifying Gametocytocidal Compounds (AID 743244); further: potency means the concentration at half of the fitted maximal effect; details: P. falciparum 3D7 stage III-V gametocytes, alamarBlue, 72 h; max response: hits give low values
In short: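 Late gametocytes (III–V), P. falciparum 3D7; 72 h drug, then 24 h alamarBlue; resazurin reduction read by fluorescence.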

[2] = P-glycoprotein substrates identified in KB-8-5-11 adenocarcinoma cell line, qHTS therapeutic library screen (AID 1346987); further: potency means the concentration at half of the fitted maximal effect; nearly all actives have a fitted effect of over 65% in size
In short: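 KB-8-5-11, a colchicine-selected P-gp-overexpressing KB-3-1 subline, was grown without colchicine for the assay. Cells were seeded at 500 cells/well, dosed in concentration-response and incubated 72 h at 37 degree C, 5% CO2. Viability was read by CellTiter-Glo luminescence.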

[3] = qHTS of pediatric cancer cell lines to identify multiple opportunities for drug repurposing: Primary screen for SJ-GBM2 cells (AID 1347091)
In short: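 Cell viability, CellTiter-Glo luminescence; 500-1,000 cells/well, 8- or 11-point titration, 48 h compound exposure at 37 degrees C, 5% CO2. Controls: DMSO neutral, bortezomib 2.3 µM final as positive.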

[4] = qHTS of pediatric cancer cell lines to identify multiple opportunities for drug repurposing: Primary screen for SK-N-MC cells (AID 1347093); details: SK-N-MC viability, CellTiter-Glo luminescence, 48 h; activity change, negative = cytotoxic: at 46 µM (top of the series); further: potency means the concentration at half of the fitted maximal effect
In short: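 Metabolically active cells were quantified by ATP-dependent luminescence (CellTiter-Glo, 15 min at room temperature) following 48 h treatment. Cells had been plated at 500-1,000 per well and settled for 5 h beforehand.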

[5] = qHTS of pediatric cancer cell lines to identify multiple opportunities for drug repurposing: Primary screen for NB-EBc1 cells (AID 1347095)
In short: (§1)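 ATP-based luminescence (CellTiter-Glo) quantifies viability after a 48-hour exposure. Compounds are dosed across 8 or 11 final concentrations; DMSO and 2.3 µM bortezomib serve as controls.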

[6] = qHTS of pediatric cancer cell lines to identify multiple opportunities for drug repurposing: Primary screen for SK-N-SH cells (AID 1347098); details: SK-N-SH viability, CellTiter-Glo luminescence, 48 h; activity change, negative = cytotoxic: at 57 µM (top of the series); further: nearly all actives have a fitted effect of over 65% in size
In short: (§2)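 Cells (500-1,000/well) rested 5 h, then received compounds for 48 h; metabolically active cells were measured by CellTiter-Glo luminescence. Final concentrations spanned up to 46 µM (MIPE, 11-point) or 0.59 nM-46 µM (NPC, 8-point) in primary screens, 11-point in follow-ups.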

[7] = qHTS of pediatric cancer cell lines to identify multiple opportunities for drug repurposing: Primary screen for NB1643 cells (AID 1347099); further: potency means the concentration at half of the fitted maximal effect; nearly all actives have a fitted effect of over 50% in size
In short: as §1

[8] = qHTS of pediatric cancer cell lines to identify multiple opportunities for drug repurposing: Primary screen for LAN-5 cells (AID 1347100); further: potency means the concentration at half of the fitted maximal effect
In short: as §2

[9] = qHTS of pediatric cancer cell lines to identify multiple opportunities for drug repurposing: Primary screen for BT-12 cells (AID 1347101); further: potency means the concentration at half of the fitted maximal effect; nearly all actives have a fitted effect of over 25% in size
In short: as §2

[10] = qHTS of pediatric cancer cell lines to identify multiple opportunities for drug repurposing: Primary screen for Rh18 cells (AID 1347102); further: nearly all actives have a fitted effect of over 65% in size
In short: as §2

[11] = qHTS of pediatric cancer cell lines to identify multiple opportunities for drug repurposing: Primary screen for Rh30 cells (AID 1347107); further: nearly all actives have a fitted effect of over 75% in size
In short: as §2

[12] = qHTS of pediatric cancer cell lines to identify multiple opportunities for drug repurposing: Primary screen for Rh41 cells (AID 1347108);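 further: luminescence drop marks cytotoxic hits; nearly all actives have a fitted effect of over 70% in size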
In short: as §1

[13] = qHTS of pediatric cancer cell lines to identify multiple opportunities for drug repurposing: Confirmatory screen for NB1643 cells (AID 1347109); further: nearly all actives have a fitted effect of over 45% in size
In short: as §2

[14] = qHTS of pediatric cancer cell lines to identify multiple opportunities for drug repurposing: Confirmatory screen for BT-12 cells (AID 1347112); further: nearly all actives have a fitted effect of over 55% in size
In short: as §2

[15] = qHTS of pediatric cancer cell lines to identify multiple opportunities for drug repurposing: Confirmatory screen for LAN-5 cells (AID 1347113); further: nearly all actives have a fitted effect of over 65% in size
In short: as §2

[16] = qHTS of pediatric cancer cell lines to identify multiple opportunities for drug repurposing: Confirmatory screen for DAOY cells (AID 1347114)
In short: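 Viability measured as metabolically active cells via CellTiter-Glo luminescence following 48 hours of compound exposure, 11-point dilutions in confirmatory testing. 500-1,000 cells/well plated 5 hours before dosing; controls were DMSO and 2.3 µM bortezomib.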

[17] = qHTS of pediatric cancer cell lines to identify multiple opportunities for drug repurposing: Confirmatory screen for NB-EBc1 cells (AID 1347115);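 further: potency means the concentration at half of the fitted maximal effect; cells exposed to compound for 48 h before the viability read; nearly all actives have a fitted effect of over 45% in size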
In short: as §2

[18] = qHTS of pediatric cancer cell lines to identify multiple opportunities for drug repurposing: Confirmatory screen for BT-37 cells (AID 1347117); further: nearly all actives have a fitted effect of over 55% in size
In short: as §2

[19] = qHTS of pediatric cancer cell lines to identify multiple opportunities for drug repurposing: Confirmatory screen for TC32 cells (AID 1347118)
In short: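 Luminescent CellTiter-Glo read-out of metabolically active TC32 cells after 48 h compound exposure. Primary: MIPE 11-point, 0.78 nM–46 µM; NPC 8-point, 0.59 nM–46 µM. Confirmatory: 11-point dilutions.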

[20] = qHTS of pediatric cancer cell lines to identify multiple opportunities for drug repurposing: Confirmatory screen for control Hh wild type fibroblast cells (AID 1347121); further: nearly all actives have a fitted effect of over 70% in size
In short: as §2

[21] = qHTS of pediatric cancer cell lines to identify multiple opportunities for drug repurposing: Confirmatory screen for Saos-2 cells (AID 1347127); further: potency means the concentration at half of the fitted maximal effect; nearly all actives have a fitted effect of over 60% in size
In short: as §2

[22] = qHTS of pediatric cancer cell lines to identify multiple opportunities for drug repurposing: Confirmatory screen for OHS-50 cells (AID 1347128); further: nearly all actives have a fitted effect of over 55% in size
In short: as §2

[23] = qHTS to identify inhibitors of the type 1 interferon - major histocompatibility complex class I in skeletal muscle: primary screen against the NCATS Pharmaceutical Collection (AID 1347407); details: human skeletal muscle cells, IFN-b-induced MHC-I HiBiT luminescence, 24 h; activity change, negative = inhibition: at 45.9 µM (top of the series);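 further: luminescence of HiBiT knocked into endogenous HLA-B as interferon-induced MHC class I level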
In short: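 HLA-B HiBiT myoblasts, dexamethasone-free growth medium + 4 ng/ml IFN-b; compounds pinned 1 h after seeding, […] from 46 uM; 24 h, 37 C, 5% CO2; lytic HiBiT detection, 10 min RT, luminescence.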

[24] = biological target: Protein phosphatase 1D (Homo sapiens) (UniProt O15297); experiment: RapidFire Mass Spectrometry qHTS Assay for Modulators of WT P53-Induced Phosphatase 1 (WIP1) (AID 1347424);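 further: amount of dephosphorylated VEPPL-S-QETFS peptide product formed by WIP1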
UniProt O15297, sequence (O15297 whole entry, looked up): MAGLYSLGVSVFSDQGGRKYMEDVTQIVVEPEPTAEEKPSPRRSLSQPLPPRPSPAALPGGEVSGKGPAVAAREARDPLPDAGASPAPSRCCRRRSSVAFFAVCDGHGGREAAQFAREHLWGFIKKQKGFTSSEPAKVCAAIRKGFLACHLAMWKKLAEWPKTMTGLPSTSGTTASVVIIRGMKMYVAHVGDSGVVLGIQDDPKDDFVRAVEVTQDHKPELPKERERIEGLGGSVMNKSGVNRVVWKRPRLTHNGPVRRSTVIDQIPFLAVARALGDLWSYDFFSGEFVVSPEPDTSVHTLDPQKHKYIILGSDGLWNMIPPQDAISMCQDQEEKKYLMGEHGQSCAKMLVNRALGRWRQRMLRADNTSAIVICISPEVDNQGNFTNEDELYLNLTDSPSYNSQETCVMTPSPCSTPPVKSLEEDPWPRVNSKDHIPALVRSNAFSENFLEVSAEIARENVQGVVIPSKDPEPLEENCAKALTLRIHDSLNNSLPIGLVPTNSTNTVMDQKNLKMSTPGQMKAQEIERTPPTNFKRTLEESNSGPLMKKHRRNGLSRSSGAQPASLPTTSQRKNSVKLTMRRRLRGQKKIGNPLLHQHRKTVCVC
In short: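 10 nM WIP1 + cpd, 1 h RT; + 2 uM VEPPL-pS-QETFS, 5 min RT; stop 0.5% formic acid; labelled product standard 1 uM; RapidFire MS. Buffer 50 mM Tris pH 7.5, 30 mM MgCl2, 1 mM TCEP.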

[25] = Primary qHTS for small molecule stabilizers of the endoplasmic reticulum resident proteome: Secreted ER Calcium Modulated Protein (SERCaMP) assay (AID 1508630); details: SH-SY5Y GLuc-SERCaMP (Gaussia luciferase released on ER calcium loss) secretion, thapsigargin, luminescence; activity change, negative = inhibition: at 38.4 µM (top of the series); further: potency means the concentration at half of the fitted maximal effect
In short: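 GLuc-SERCaMP-expressing SH-SY5Y cells, pretreated 16 h with compound, are challenged with thapsigargin to empty ER calcium stores; after 4 h, coelenterazine is added directly to the medium and luminescence is imaged.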

[26] = biological target: Cytochrome P450 2C9 (Homo sapiens) (UniProt P11712); experiment: Cytochrome P450 family 2 subfamily C member 9 (CYP2C9) small molecule antagonists: luciferase biochemical (cell-free) qHTS assay (AID 1645842; active means well fitted curve in the direction sought with a large enough effect in the repeat runs; inconclusive means weak or mixed curves; inactive means no such curve, though single readings can be large; an effect the other way counts as inactive or inconclusive; further: nearly all actives have a fitted effect of over 55% in size)
UniProt P11712, sequence (P11712 whole entry, looked up): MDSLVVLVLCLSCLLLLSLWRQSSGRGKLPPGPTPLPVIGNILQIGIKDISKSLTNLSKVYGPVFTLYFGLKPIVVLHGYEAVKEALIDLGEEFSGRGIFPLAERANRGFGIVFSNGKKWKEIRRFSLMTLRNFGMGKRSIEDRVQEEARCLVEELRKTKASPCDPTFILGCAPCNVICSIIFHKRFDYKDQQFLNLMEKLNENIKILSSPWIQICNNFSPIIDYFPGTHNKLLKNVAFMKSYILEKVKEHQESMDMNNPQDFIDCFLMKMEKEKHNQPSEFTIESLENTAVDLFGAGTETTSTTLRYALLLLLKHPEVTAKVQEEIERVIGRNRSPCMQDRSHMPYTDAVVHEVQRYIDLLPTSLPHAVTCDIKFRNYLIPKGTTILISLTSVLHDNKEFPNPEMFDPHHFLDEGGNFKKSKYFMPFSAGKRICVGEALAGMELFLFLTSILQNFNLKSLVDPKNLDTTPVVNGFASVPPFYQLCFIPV
In short: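 Luminescence, after 20 min with luciferin detection reagent, reflected CYP2C9 turnover during a 1 h NADPH-driven reaction at 37C. Enzyme-substrate mix contained 0.4% bovine serum albumin and was preincubated with compound 10 min at room temperature.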

[27] = Primary qHTS for inhibitors of nuclear receptor binding SET domain protein 2 (NSD2) in an isogenic RCH-ACV NSD2 p.E1099K mutant (9B) (AID 1645876); further: potency means the concentration at half of the fitted maximal effect; nearly all actives have a fitted effect of over 70% in size
MKL-2 = experiment: qHTS assay to identify novel small-molecules to repurpose for Merkel cell carcinoma treatment (AID 1296009); details: MCC and control cell lines, CellTiter-Glo viability, 72 h; activity change, negative = cytotoxicity: at 46 µM (top of the series); further: potency means the concentration at half of the fitted maximal effect; nearly all actives have a fitted effect of over 60% in size
In short: (§3)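 72 hr, 37 degree celsius; NPC 8-pt / MIPE 11-pt dose response; compound pinned in DMSO; CellTiter-Glo, 10 min RT, luminescence; normalized to no-cell and DMSO controls.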

UISO = experiment: as above; details: MCC and control cell lines, CellTiter-Glo viability, 72 h; activity change, negative = cytotoxicity: at 46 µM (top of the series)
In short: as §3

WaGa = experiment: as above; details: MCC and control cell lines, CellTiter-Glo viability, 72 h; series mostly up to 46 µM
In short: as §3

OV90 = experiment: Primary qHTS to identify gynecologic anti-cancer compounds using libraries of approved drugs and bioactive compounds (AID 1345084); details: Gynecologic cancer cell panel viability, ATPlite luminescence, 48 h; series mostly up to 57.5 µM
In short: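 In this quantitative HTS, cell killing is estimated from loss of ATP-dependent luciferase light. Cells see five compound concentrations over a 48 h exposure.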

[28] = Drug repurposing screens with cells derived from glioblastoma tumor samples (AID 1345199); details: GBM patient neurospheres viability, ATP luminescence, 48 h; Potency: tumour line A unless noted; series mostly up to 46 µM; further: nearly all actives have a fitted effect of over 40% in size; further: potency means the concentration at half of the fitted maximal effect
In short: (§4)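 Four patient lines of CD133+ GBM neurospheres were screened at several concentrations; hits were retested in those lines plus three slower-growing GBM lines, using 48-hour treatment and ATP-based viability.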

astro = experiment: as above; details: viability, ATP luminescence, 48 h; series mostly up to 45.9 µM
In short: as §4
Tags describe the fitted curve by direction and shape.

## O=[N+]([O-])c1ccc(/C=N\O)o1
[1]
  Potency: inconclusive: 25.1 µM [inhibitor, single point]
[2]
  Potency: inconclusive: 29.1 µM [inhibitor, single point]
[3]
  Potency: inactive
[4]
  Potency: active: 4.22 µM
[5]
  Potency: inactive
[6]
  Potency: inactive
[7]
  Potency: inconclusive: 13.3 µM [cytotoxic, partial curve, poor fit]
[8]
  Potency: inconclusive: 11.9 µM [cytotoxic, partial curve]
[9]
  Potency: inconclusive: 17.4 µM [cytotoxic, single point]
[10]
  Potency: inactive
[11]
  Potency: inactive
[12]
  Potency: inactive
[13]
  Potency: inactive
[14]
  Potency: inactive
[15]
  Potency: inactive
[16]
  Potency: inconclusive: 5.22 µM [cytotoxic, full curve]
[17]
  Potency: inconclusive: 0.0019 µM [rising, full curve, poor fit]
[18]
  Potency: inactive
[19]
  Potency: active: 3.29 µM
[20]
  Potency: inactive
[21]
  Potency: inconclusive: 26.1 µM [rising, partial curve]
[22]
  Potency: inactive
[23]
  Potency: inactive
[24]
  Potency: inactive
[25]
  Potency: inconclusive: 25.1 µM [inhibitor, partial curve, poor fit]
[26]
  Potency: inactive
[27]
  Potency: inconclusive: 18.8 µM [inhibitor, single point]
MKL-2
  Potency: inconclusive: 8.41 µM [inhibitor, partial curve]
UISO
  Potency: inconclusive: 26.6 µM [inhibitor, single point]
WaGa
  Potency: active: 23.7 µM
OV90
  Potency: inconclusive: 22.4 µM [cytotoxic, single point]
[28]
  Potency: inconclusive: 20 µM [inhibitor, partial curve, poor fit]
astro
  Potency: inactive
